Data published in PubChem BioAssay AID1347073 (National Center for Advancing Translational Sciences (NCATS), 2019).
Among all 45,000 compounds or so, about 200 (0.44%) were called active. Not shown: some 7% with an inconclusive outcome. Calls follow the shape of the dose curve; as a rule, active = well fitted activation curve with a large enough effect; inconclusive = small, poorly fitted or top-dose-only effect; inactive = no such curve, though single readings can be large or run the other way. The list shows a part of the results.

Test: qHTS of TDP-43 Inhibitors: NCGC Sytravon Library Screen; also: 0% is about no effect; nearly all actives have a fitted effect of over 55% in size
Settings: yeast TDP-43 toxicity rescue, BacTiter-Glo growth, 24 h; series mostly up to 46.1 µM; growth rescue (activation): at the top concentration
Outline: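 TDP-43-expressing yeast, pregrown in raffinose, seeded at OD600 0.02 in galactose medium with compound for 24 hr at 30 deg C. Growth read by BacTiter-Glo luminescence, so rescue of toxicity appears as activation.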

Row | SMILES | growth rescue (activation)
1 | COCC(=O)OCc1cc2cccc(C)c2[nH]c1=O | inactive: 7.52%
2 | Cc1cnc(NC(=O)Cc2ccccc2F)s1 | inactive: -2.05%
3 | Cc1cc(C2C(C#N)=C(N)SC(N)=C2C#N)c(C)s1 | inactive: 38.5%
4 | CCN1CCCC1CNCC(=O)Nc1ccc(OC(F)(F)F)cc1 (stereo not drawn) | inactive: 17.2%
5 | CNC(=S)N/N=C/c1c(C)c(C(=O)c2ccc(F)cc2)n2ccccc12 | inactive: 13.3%
6 | CC(C(=O)OCC(=O)Nc1cccc(S(=O)(=O)N(C)C)c1)N1C(=O)c2ccccc2C1=O (stereo not drawn) | inactive: 7.32%
7 | Cc1ccc(N(CC(=O)N2CCCC2)S(C)(=O)=O)c(C)c1 | inactive: 5.33%
8 | Cc1nc(C(F)(F)F)ccc1C(=O)N1CCC1(C)C(=O)NS(=O)(=O)c1cccc(Cl)c1 (stereo not drawn) | inactive: -1.65%
9 | N#CC1=C(N)Oc2cc(N)ccc2C1c1ccccc1 (stereo not drawn) | inactive: -3.8%
10 | CC(C)NC(=O)c1ccc2c(c1)N(CC(=O)N1CCCCC1)C(=O)C(C)(C)O2 | inactive: -13.1%
11 | O=C(CN1CCOCC1)Nc1nc(-c2ccc3c(c2)CCN3S(=O)(=O)c2ccccc2)cs1 | inactive: -0.53%
12 | CC(=O)Nc1cccc(-c2ccnc3c2CC(C(=O)NCCN(C)C)O3)c1 (stereo not drawn) | inactive: 3.99%
13 | CC(=O)Nc1ccc(C(=O)OCC(=O)N2CC3(C)CC2CC(C)(C)C3)cc1 (stereo not drawn) | inactive: -1.46%
14 | Cc1ccc(S(=O)(=O)N2CCCCC2)cc1NC(=O)c1ccc2ccccc2n1 | inactive: 6.06%
15 | OC1CCCN(CC(O)COC(c2ccccc2)c2ccccc2)C1 (stereo not drawn) | inactive: -2.03%
16 | Cc1ccc(C(=O)NCCNC(=O)COc2ccccc2Cl)cn1 | inactive: -0.943%
17 | COc1ccc(NC(=O)c2ccc3nc(C)c(N(C)C(=O)CCc4ccccc4)n3c2)cc1OC | inactive: 16.4%
18 | CC(C)Oc1ccc(C(=O)N(Cc2ccc(N(C)C)cc2)Cc2ccco2)cc1 | inactive: 10.9%
19 | COc1ccc(-c2cc(CNS(=O)(=O)c3ccccc3)on2)cc1 | inactive: 12.6%
20 | COc1ccc(/C=C/C(=O)Nc2ccccc2F)cc1S(=O)(=O)N1CCOCC1 | inactive: -23.3%
21 | CC(C)OC(=O)C1C(=O)CC(C)(O)C(C(=O)OC(C)C)C1c1ccccc1 (stereo not drawn) | inactive: 7.7%
22 | Cc1cc(C(=O)CCl)c(C)n1-c1c(C)n(C)n(-c2ccccc2)c1=O | inactive: 8.03%
23 | COc1cccc(C(C)(O)c2nc(-c3ccc(F)c(Cl)c3)cs2)c1 (stereo not drawn) | inactive: -41.1%
24 | O=C(N/N=C/c1ccc2c(c1)OCO2)c1cccnc1 | inactive: 2.19%
25 | O=C(NC1CC1)c1nc(Cn2ccc([N+](=O)[O-])n2)no1 | inactive: -11.3%
26 | Cn1nnc(NC(=S)NC(=O)c2cccc3ccccc23)n1 | inactive: 22.9%
27 | CC1Cc2ccccc2N1C(=S)Nc1cccc(S(=O)(=O)N(C)C)c1 (stereo not drawn) | inactive: 23.4%

Row | SMILES | growth rescue (activation)
28 | CC(NS(=O)(=O)c1ccccc1Cl)C1CC2CCC1C2 (stereo not drawn) | inactive: -5.55%
29 | COc1ccc(C(=O)NCC2(c3ccccc3)CCOCC2)cc1[N+](=O)[O-] | inactive: 3.64%
30 | CCN(CC)c1ccc(NC(=O)COc2ccc(-n3cnnn3)cc2)cc1 | inactive: 9.05%
31 | Cn1nccc1C(=O)Nc1ccc(S(=O)(=O)N2CCCC2)cc1 | inactive: 11.5%
32 | CC(C)n1cc(NC(=O)COc2ccccc2Cl)cn1 | inactive: 14.5%
33 | CN(C)c1ccc(/C=C2\C(=N)N3N=C(CC(=O)N4CCCCC4)SC3=NC2=O)cc1 | inactive: -9.32%
34 | C/C(=N\NC(=O)c1ccc(CSc2nncn2C)cc1)c1ccc(Cl)cc1 | inactive: 5.96%
35 | CCOC(=O)C1(Cc2ccc(OC)cc2)CCN(C(=O)c2csc(C)n2)CC1 | inactive: 13.7%
36 | Cn1ncc(Cl)c1C(=O)N1CCOCC1 | inactive: 7.07%
37 | CC(NC(=O)c1ccccc1Br)c1nnc(SCC(=O)NC2=NCCS2)n1C (stereo not drawn) | inactive: -16.9%
38 | CC(C)[C@H](NS(=O)(=O)c1ccccc1)C(=O)OCC(=O)Nc1cccc(S(N)(=O)=O)c1 | inactive: 13.5%
39 | COc1ccccc1C(=O)NCCC(=O)NCC1CCCCC1 | inactive: 16.6%
40 | CC(C)(C)c1ccc2c(c1)N(CC(=O)N1CCOCC1)C(=O)CO2 | inactive: 5.53%
41 | O=C(CSc1n[nH]c(-c2ccco2)n1)Nc1ccccc1F | inactive: 4.06%
42 | COc1ccc(CNC(=O)Nc2nnc([C@H]3C[C@H](O)[C@@H](CO)O3)s2)cc1 | inactive: -7.71%
43 | CCc1cccc(NC(=O)Nc2ccc3c(c2)OCO3)c1 | inactive: 11.1%
44 | O=C(Nc1cnn(Cc2ccc(F)cc2)c1)c1cnn2c(C(F)F)cc(-c3ccccc3)nc12 | inactive: -1.51%
45 | CC1(C(=O)Nc2ccc3c(c2)OCCO3)CCN1C(=O)C1(c2ccc(Cl)cc2)CCC1 (stereo not drawn) | inactive: 23.1%
46 | COc1ccc(OC)c(S(=O)(=O)n2ccc(C)n2)c1 | inactive: -0.908%
47 | O=C(NC(=S)NCc1ccc(-c2nc3ccccc3s2)cc1)c1ccco1 | inactive: -0.007%
48 | CNC(=S)N(CCc1ccc(OC)c(OC)c1)Cc1cc2c(C)cc(C)cc2[nH]c1=O | inactive: 5.2%
49 | Cc1ccc(S(=O)(=O)Nc2nc(-c3ccc(F)cc3)cs2)cc1 | inactive: -13.3%
50 | S=c1[nH]nc(-c2cc(-c3ccccc3)n[nH]2)n1/N=C/c1ccc(Cl)cc1 | inactive: 13.7%
51 | COc1ccc(C(=O)Nc2ccc(C(=O)NCCc3ccccc3)cc2)cc1 | inactive: -5.04%
52 | COc1cccc(NC(=O)COC(=O)C2=NN(c3ccccc3)C(=O)CC2)c1 | inactive: 18.4%
53 | COc1cccc(-c2cnc(C(O)c3ccc(C)cc3)[nH]2)c1 (stereo not drawn) | inactive: -5.13%
